A lower IC50 marks a more sensitive line; a fit beyond the top or the lowest dose is shown as a bound at that dose. AUC is the area under the same curve over the 256-fold range up to the top dose, as a fraction; the more sensitive the line, the further below 1. For some of these results: The top dose, if marked as inferred, was derived from the fitted curves, not read from the paper. For some of these results: An entry number marks a drug with two screens in the source, which often give different values.
What was measured:
Experiment in all cases: Viability of human cancer cell lines after 72 h of drug (GDSC screen)
PHA-793887 = compound: CC(C)CC(=O)Nc1n[nH]c2c1CN(C(=O)C1CCN(C)CC1)C2(C)C [PHA-793887]; details: top dose 10.24 µM
Procedure: (§1)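 Human cancer cell lines in 384-well plates, medium with 10% serum, drug for 72 h over a 256-fold dose range (nine 2-fold or five 4-fold steps up to the top dose). Adherent lines were fixed and stained with the nucleic acid dye Syto60, suspension lines read with resazurin; signal relative to control wells, capped at 0 and 100%. One two-parameter sigmoid per drug and line, fitted in a mixed model over all curves with the slope shared within a line.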

Pyrimethamine = compound: CCc1nc(N)nc(N)c1-c1ccc(Cl)cc1 [Pyrimethamine]; details: top dose 20 µM; top dose inferred
Procedure: as §1

AZD-0530 = compound: CN1CCN(CCOc2cc(OC3CCOCC3)c3c(Nc4c(Cl)ccc5c4OCO5)ncnc3c2)CC1 [AZD-0530]; details: top dose 2 µM
Procedure: as §1

Epothilone B = compound: C/C(=C\c1csc(C)n1)[C@@H]1C[C@@H]2O[C@]2(C)CCC[C@H](C)[C@H](O)[C@@H](C)C(=O)C(C)(C)[C@@H](O)CC(=O)O1 [Epothilone B]; details: top dose 0.032 µM; top dose inferred
Procedure: as §1

Y-39983 = compound: C[C@@H](N)c1ccc(C(=O)Nc2ccnc3[nH]ccc23)cc1 [Y-39983]; details: top dose 20 µM; top dose inferred
Procedure: as §1

TPCA-1 = compound: NC(=O)Nc1sc(-c2ccc(F)cc2)cc1C(N)=O [TPCA-1]; details: top dose 20 µM
Procedure: as §1

PLX4720 = compound: CCCS(=O)(=O)Nc1ccc(F)c(C(=O)c2c[nH]c3ncc(Cl)cc23)c1F [PLX4720]; details: top dose 10 µM
Procedure: as §1

[1] = screen: GDSC drug entry 1371, top dose inferred

Cell Line	AUC (PHA-793887)	IC50 (PHA-793887) [µM]	AUC (Pyrimethamine)	IC50 (Pyrimethamine) [µM]	AUC (AZD-0530)	IC50 (AZD-0530) [µM]	AUC (Epothilone B)	IC50 (Epothilone B) [µM]	AUC (Y-39983)	IC50 (Y-39983) [µM]	AUC (TPCA-1)	IC50 (TPCA-1) [µM]	AUC (PLX4720; screen: GDSC drug entry 1036)	IC50 (PLX4720; screen: GDSC drug entry 1036) [µM]	AUC (PLX4720; [1])	IC50 (PLX4720; [1]) [µM]
RKO (large intestine, adherent)	0.711	2.4	0.925	> 20	0.983	> 2	0.233	0.000362	0.961	> 20	0.893	> 20	0.973	> 10	0.957	> 10
RL (B-cell lymphoma, suspension)	0.488	0.594	0.966	> 20	0.985	> 2	0.982	> 0.032	0.936	> 20	0.773	7.15	0.986	> 10	0.931	> 10
RPMI-6666 (Hodgkin lymphoma, suspension)	0.322	0.183	0.83	16.3	0.876	> 2	0.468	0.00161	0.857	> 20	0.392	0.595	0.951	> 10	0.945	> 10
RPMI-8226 (myeloma, suspension)	0.407	0.368	0.948	> 20	0.99	> 2	0.587	0.00334	0.948	> 20	0.89	17.7	0.962	> 10	0.985	> 10
RPMI-8402 (T-cell lymphoblastic leukaemia, suspension)	0.429	0.424	0.809	8.48	0.969	> 2	0.663	0.00522	0.719	4.63	0.604	2.3	0.986	> 10	0.971	> 10
RPMI-8866 (chronic myeloid leukaemia, suspension)	0.408	0.366	0.809	9.53	0.988	> 2	0.852	0.022	0.86	14.9	0.457	0.964	0.787	4.02	0.899	> 10
RS4-11 (leukaemia, suspension)	0.124	0.0471	0.952	> 20	0.989	> 2	0.504	0.00205	0.849	13.1	0.699	4.28	0.909	> 10	0.98	> 10
RXF393 (kidney, adherent)	0.744	4.32	0.878	> 20	0.811	1.61	0.581	0.00362	0.747	8.64	0.84	> 20	0.95	> 10	0.962	> 10
Ramos-2G6-4C10 (Burkitt lymphoma, suspension)	0.482	0.577	0.742	5.43	0.964	> 2	0.709	0.007	0.657	3.18	0.646	2.97	0.952	> 10	0.99	> 10
SBC-1 (small cell lung carcinoma, suspension)	0.537	0.802	0.972	> 20	0.984	> 2	0.945	> 0.032	0.989	> 20	0.91	> 20	0.988	> 10	0.988	> 10
SF126 (glioma, adherent)	0.974	> 10.2	0.863	18.9	0.883	> 2	0.598	0.00377	0.94	> 20	0.873	> 20	0.986	> 10	0.984	> 10
SF268 (glioma, adherent)	0.675	2.05	0.683	4.24	0.935	> 2	0.596	0.00375	0.885	> 20	0.878	> 20	0.985	> 10	0.977	> 10
SH-4 (melanoma, adherent)	0.964	> 10.2	0.932	> 20	0.852	> 2	0.617	0.00503	0.935	> 20	0.834	> 20	0.485	0.556	0.447	–
SHP-77 (small cell lung carcinoma, semi-adherent)	0.979	> 10.2	0.918	> 20	0.97	> 2	0.611	0.0039	0.955	> 20	0.927	> 20	0.989	> 10	0.991	> 10
